# Several values for one entry are separate records, joined by “and”; a condition that tells them apart may be missing. Identical values can stand only once. The whole screen tested about 390,000 compounds, of which about 930 (0.24%) were called active. The shares of active, inactive and inconclusive entries below differ from those in the screen. Calls come from the whole dose curve; as a rule, active = well fitted activation curve with a large enough effect; inconclusive = small, poorly fitted or top-dose-only effect; inactive = no such curve, though single readings can be large or run the other way. Where the call is inconclusive, the potency comes from a doubtful curve fit.
# Test: qHTS for Suppressors of FUS Proteinopathy: Primary screen using FUS-linked yeast assay; note: nearly all actives have a fitted effect of over 55% in size;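 for growth rescue (activation): plate controls were DMSO vehicle for no effect and reference control for full effect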
# Conditions: S. cerevisiae FUS-expressing, OD600, 24 h; Potency: growth rescue; growth rescue (activation): at 76.6 µM (top of the series)
# Method in brief: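 Quantitative HTS measuring growth restoration of FUS-toxic yeast. Galactose-induced cells (OD 0.005) were exposed 24hr at 30C to compounds at several concentrations, then absorbance at 600 nm was recorded.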
# Potency is the fitted concentration of half-maximal effect; tags give direction and shape of the fitted curve.
SMILES,Potency,growth rescue (activation)
CCOc1ccccc1C(=O)Nc1ccc(S(=O)(=O)Nc2nccc(C)n2)cc1,inactive,
COc1ccc2c(c1)c1ccccc1n2C,,inconclusive: 62.3% [activator]
CCOc1ccc(NC(=O)CS(=O)CC(=O)N(CC(=O)NC(C)(C)C)C2CCCC2)cc1 (stereo unspecified),"inconclusive: 5.62 µM [activator, partial curve, poor fit]",
COc1c(Br)cc(/C=N/n2c(-c3ccccc3)n[nH]c2=S)c(O)c1Br,"inconclusive: 31.6 µM [activator, single point]",
Cc1nn(-c2ccccc2)c2sc(C(=O)NCc3ccc(F)cc3)cc12,"inconclusive: 31.6 µM [activator, single point]",
COc1ccc(Br)cc1CNC(=O)C1CCN(c2nnc(-n3cccc3CNc3ccc(C)cc3)s2)CC1,"inconclusive: 17.8 µM [activator, partial curve, poor fit]",
CCOC(=O)c1cc(-c2ccc(OC)cc2F)nc2c1c(C)nn2CCC#N,inactive,
Cc1nc(N2CCCCC2)c2c(C)c(C(=O)Nc3ccc4c(c3)OCCO4)sc2n1,"inconclusive: 50.1 µM [activator, single point]",
COc1ccc(CCN2C(=O)CCC2(C)C(=O)NCc2cccnc2)cc1OC (stereo unspecified),,inconclusive: 64.4% [activator]
COc1ccccc1-c1sc2cc3c(cc2c1-c1ccc(OCCN2CCOCC2)cc1)OCO3,"inconclusive: 22.4 µM [activator, single point]",
COc1ccc(N2CCN(C(=O)c3ccc4c(c3)CCN4S(=O)(=O)c3ccccc3)CC2)cc1,"inconclusive: 35.5 µM [activator, single point] and inconclusive: 31.6 µM [activator, partial curve, poor fit]",
CCN(CC)c1ncnc2sc(C(=O)N3CCN(c4ccc(OC)cc4)CC3)c(C)c12,"inconclusive: 5.62 µM [activator, single point]",
CCOC(=O)c1cccc(NC(=O)c2ccc(N(C)C)cc2)c1,"inconclusive: 7.08 µM [activator, single point]",
Cc1c(C(=O)N(C)Cc2ccccc2)sc2nc(-c3ccc(F)cc3)cn12,"inconclusive: 39.8 µM [activator, single point]",
Cc1ccc(C)c(CSc2cn(CC(=O)N3CCCC3)c3ccccc23)c1,"inconclusive: 50.1 µM [activator, single point]",
Cc1nc(Nc2nc3ccccc3o2)nc(C)c1C,,inconclusive: -64.5% [activator]
O=C(O)c1ccc(N/N=C/c2cccc(C(F)(F)F)c2)cc1,inactive,
CC(C)C[C@H](NC(=O)c1nc[nH]c1C(=O)NC(c1ccccc1)c1ccccc1)C(=O)OC(C)(C)C,active: 14.1 µM,
O=C(Nc1ccccc1Cl)C1CCCN(c2ncnc3c2nc2n3CCCCC2)C1 (stereo unspecified),inactive,
CCOC(=O)c1c(N)n(-c2ccc(N)cc2)c2nc3ccccc3nc12,inactive,
Cc1onc(-c2ccccc2)c1C(=O)N/N=C/c1ccco1,inactive,

SMILES,Potency,growth rescue (activation)
Nc1ccc(Br)c2cccnc12,"inconclusive: 39.8 µM [activator, partial curve, poor fit]",
COc1ccc(-c2ccc(CN3C(C(C)C)C(=O)N(Cc4cn(CCC5OCCCO5)nn4)CCS3(=O)=O)cc2)cn1 (stereo unspecified),"inconclusive: 39.8 µM [activator, single point]",
CCN1C(=O)[C@H]2[C@@H](c3ccc(-c4ccc5c(c4)OCO5)c(OC)c3)N[C@@](Cc3ccccc3)(C(=O)OC)[C@H]2C1=O,"inconclusive: 22.4 µM [activator, partial curve, poor fit]",
COc1ccc(OC)c(NC(=O)c2ccccc2N(Cc2ccccc2)C(=O)C(C)Cl)c1 (stereo unspecified),"inconclusive: 15.8 µM [activator, partial curve, poor fit]",
COc1ccc(S(=O)(=O)N(C(=O)C(C)C)c2ccc3oc(=O)sc3c2)cc1,"inconclusive: 31.6 µM [activator, single point]",
COc1cc(/C=N/NC(=O)c2sc(N)c(C#N)c2C)ccc1O,"inconclusive: 35.5 µM [activator, partial curve, poor fit]",
COc1ccc(Cl)cc1-c1cc(C(=O)NCc2cccc(Cl)c2)[nH]n1,inactive,
CC1=NN(c2ccccc2)C(=O)C1C(=O)c1ccc([N+](=O)[O-])cc1 (stereo unspecified),"inconclusive: 14.1 µM [activator, partial curve, poor fit]",
Cc1cccc(C)c1NC(=O)Cn1c(=O)n(Cc2ccc(C(=O)NCc3ccco3)cc2)c(=O)c2sccc21,"inconclusive: 28.2 µM [activator, partial curve, poor fit]",
CN(C)c1ccc(NC(=O)CSc2nnc(-c3cccs3)n2Cc2ccco2)cc1,"inconclusive: 39.8 µM [activator, single point]",
O=C(Nc1ccc(-c2nc3ccccc3s2)cc1)c1cc(-n2cnnc2)ccc1Cl,"inconclusive: 14.1 µM [activator, partial curve, poor fit]",
COc1cc(C#Cc2c(-c3cncn3C)n(C)c3ccc(-c4ccc(OC)c(OC)c4)cc23)cc(OC)c1,"inconclusive: 22.4 µM [activator, single point]",
COc1ccc(C2=Nc3ccccc3NC(=O)C2N(C(=O)c2ccnc3ccccc23)c2ccccc2)cc1 (stereo unspecified),"inconclusive: 6.31 µM [activator, full curve]",
O=C(Nc1ccc2c(c1)OCCO2)C(CCc1ccccc1)N1CCN(c2ccc(F)cc2)CC1 (stereo unspecified),"inconclusive: 20 µM [activator, partial curve]",
CCCCn1nc(C(=O)Nc2cccc(C(=O)NC3CC3)c2)c2ccccc2c1=O,"inconclusive: 31.6 µM [activator, single point]",
COc1ccc(-c2cc(C(=O)NC(Cc3cc4ccccc4[nH]3)C(=O)O)c(C)o2)cc1OC (stereo unspecified),"inconclusive: 44.7 µM [activator, single point]",
CS(=O)(=O)N(Cc1nc2sc3c(c2c(=O)[nH]1)CCCC3)C1CCCCC1,"inconclusive: 10 µM [activator, partial curve]",
CN(C)S(=O)(=O)c1cccc(C(=O)NC(=S)N(CCC#N)Cc2cccnc2)c1,inactive,
Cc1ccc(C)c(NS(=O)(=O)c2cc(C(=O)N3CCc4ccccc4C3)ccc2Cl)c1,"inconclusive: 39.8 µM [activator, single point]",
Nc1ncc(-c2cc3ccccc3oc2=O)s1,"inconclusive: 20 µM [activator, partial curve, poor fit]",
CCOc1ccc(C(=O)COc2ccc(NC(C)=O)cc2)cc1,active: 11.2 µM,

SMILES,Potency,growth rescue (activation)
COc1ccc(/C=N/Nc2nncc3ccccc23)cc1,"inconclusive: 50.1 µM [activator, partial curve, poor fit]",
Cc1nn(C)c(C)c1CN(C)S(=O)(=O)c1ccc2ccccc2c1,inactive,
CN(C)c1ccc(CN(Cc2ccco2)C(=O)COc2ccc(F)cc2)cc1,inactive,
CCOC(=O)C1(C)CCCN(C(=O)c2ccccc2C(F)(F)F)C1 (stereo unspecified),inactive,
CC1CN(c2nc3ccccc3nc2SCC(=O)N2CCN(S(=O)(=O)c3ccccc3)CC2)CC(C)O1 (stereo unspecified),"inconclusive: 25.1 µM [activator, partial curve, poor fit]",
CCCCc1ccc(-c2csc(/C(C#N)=C\c3ccc(C)o3)n2)cc1,"inconclusive: 11.2 µM [activator, single point]",
CC1(C)Cc2c(sc3c2c(=N)n(Cc2ccco2)c(=O)n3CC(=O)Nc2cccc(Cl)c2)CO1,"inconclusive: 28.2 µM [activator, single point]",
Cc1ccc(NC(=O)CSc2nc3nc(C)c(Cc4ccccc4)c(C)n3n2)cc1,inactive,
CCN(CC)C(=O)C1=C(C)N(CCC2=CCCCC2)C(=O)C(CC(=O)NCc2cccc3ccccc23)C1 (stereo unspecified),"inconclusive: 35.5 µM [activator, partial curve, poor fit]",
CN(C)S(=O)(=O)c1ccc(N2CCCC2)c(C(=O)N2CCN(S(=O)(=O)c3cccc(F)c3)CC2)c1,"inconclusive: 50.1 µM [activator, single point]",
CCOC(=O)C(Cc1ccc(NC(=O)/C(=C/c2ccccc2)NC(=O)c2ccccc2)cc1)N1C(=O)c2ccccc2C1=O (stereo unspecified),"inconclusive: 50.1 µM [activator, single point]",
Cc1cccc(C)c1NC(=O)c1nc(S(C)(=O)=O)ncc1N(Cc1ccc(C(C)(C)C)cc1)Cc1ccco1,"inconclusive: 25.1 µM [activator, partial curve, poor fit]",
O=C(Nc1nc(-c2ccccc2)cs1)C1CCCCN1S(=O)(=O)c1ccc(Cl)cc1 (stereo unspecified),inactive,
Cc1ccc(C)c(NC(=O)C2Cc3ccccc3CN2C(=O)OCc2ccccc2)c1 (stereo unspecified),,inconclusive: 70.3% [activator]
Cc1cn(-c2cc(C(=O)Nc3ccc(C)c(NC(=O)C(=O)c4c[nH]c5ccccc45)c3)cc(C(F)(F)F)c2)cn1,"inconclusive: 50.1 µM [activator, single point]",
CCOC(=O)c1ccccc1NC(=O)Cn1nnc2sc3c(c2c1=O)CCCC3,inactive,
COc1ccc(CCN(C)C(=O)c2cccc(S(=O)(=O)N3CCN(c4ccc(F)cc4)CC3)c2)cc1OC,"inconclusive: 28.2 µM [activator, single point]",
COc1ccc(S(=O)(=O)c2c(N)n(Cc3ccco3)c3nc4ccccc4nc23)cc1,"inconclusive: 31.6 µM [activator, single point]",
CCCc1cc(=O)oc2c3c(c4c(c12)OC(C)(C)C=C4)OC(C)C(C)C3O (stereo unspecified),"inconclusive: 15.8 µM [activator, single point]",

# Reference: PubChem BioAssay AID1347120 (National Center for Advancing Translational Sciences (NCATS), 2019)
